“And” between values parts separate entries of the source, which are not always exact repeats. Equal values may be shown once.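 Results reflect a 48-hour exposure of cells in 96-well plates to compound at five concentrations. At the GI50, growth is halved. TGI marks complete inhibition of growth.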 Peptide text beside a SMILES is read from it.

In the experiment the test system is NCI-H322M lung. Put plainly: DTP human tumour cell line panel, 48 h.
In general, GI50 refers to the concentration giving 50% growth inhibition. In general, TGI refers to the concentration giving total growth inhibition. A lower TGI goes with greater sensitivity of the cells. For the compound `OCCNCCCOc1ccc2ncnc(Nc3ccc(Oc4cccc(C(F)(F)F)c4)c(Cl)c3)c2c1`, the GI50 is 1.16 µM and the concentration for total growth inhibition (TGI) stood at 2.55 µM.

`Cc1cc(N2CCCC2)nc(NCc2cc(Nc3ccnc4cc(Cl)ccc34)ccc2F)n1`: the GI50 is 1.21 µM and the total growth inhibition concentration (TGI) turned out to be 2.6 µM.

Regarding `Cc1cc(C(=O)NC(CCC(=O)O)C(=O)O)sc1CCC1CNc2nc(N)[nH]c(=O)c2C1` (centres undefined), the GI50 is 0.0598 µM and 0.41 µM; the TGI is more than 100 µM. In the case of `Cc1ccc(C2=C(c3ccccc3)C(c3ccccc3)Oc3ccc(C)cc32)cc1` (centres undefined), the GI50 was 15.3 µM and the total growth inhibition concentration (TGI) is 32 µM. `O=C(O)CCc1c2ccc(=O)c(O)c-2oc2c(O)c(O)ccc12` came in with a TGI of more than 100 µM. `C=C1C(=O)OC2CC(=C)C3CC=C(C)C3CC12` (centres undefined) returned a total growth inhibition concentration (TGI) of more than 100 µM.

For the compound `C[C@]12CC[C@H]3[C@@H](C[C@@H]4SC(Nc5ccccc5)=N[C@@]45CC(O)CC[C@]35C)[C@@H]1CCC2O` (some centres undefined), the GI50 is 2.88 µM and the concentration for total growth inhibition (TGI) was determined as 11.1 µM. With `Oc1cccc(/C=N/Nc2nnc(N/N=C/c3cccc(O)c3)c3ccccc23)c1`, the TGI turned out to be 69.1 µM. Still for that read-out and setting: for `Cc1ccc(NC(=S)SCCC(=O)O)cc1` the value was more than 100 µM; for `CCOC(=O)c1c(-c2ccc(Br)cc2)ccn1C`, more than 10 µM. On the same count and under the same terms, the value for `CCOC(=O)c1nc2ccccc2nc1Oc1cc(OC)c(OC)c(OC)c1` was more than 100 µM; that for `CCOC(=O)CCC(NC(=O)OCc1ccccc1)C(=O)NC(CCC(=O)OCC)C(=O)NNC(=O)OC(C)(C)C` (centres undefined) was more than 100 µM; that for `Nc1c(N2CCOCC2)c(=O)nc2[nH]/c(=C\c3ccccc3)c(=O)n12` was more than 100 µM. As for `O=C(O)CNn1c(SCC(=O)O)nnc(/C=C/c2c(O)ccc3ccccc23)c1=O`, the total growth inhibition concentration (TGI) was more than 100 µM. On to `CN1CCN(c2nc(NCCCNc3ccnc4cc(Cl)ccc34)c3ccccc3n2)CC1`, for which the GI50 is 3.49 µM and the TGI amounted to 13.3 µM. On to `c1cncc(C2Nc3cccc4cccc(c34)N2)c1`, for which the GI50 is more than 100 µM and the concentration for total growth inhibition (TGI) was more than 100 µM.

`CCN(CC)/[N+]([O-])=N/OCOC(C)=O` had a TGI of more than 100 µM. `O=C(NCCN1CCCCC1)c1ccc(I)cc1` registered a total growth inhibition concentration (TGI) of more than 100 µM. On to `C=CC/C(=C\COP(=O)(OCc1ccc([N+](=O)[O-])o1)N(C)CCCCCl)CC/C=C(\C)CCC=C(C)C` (centres undefined), for which the GI50 is 0.138 µM and the concentration for total growth inhibition (TGI) stood at 28 µM. In turn, `CC1(C)OCC([C@H]2CC23SCCCS3)O1` (some centres undefined) had a concentration for total growth inhibition (TGI) of more than 100 µM. Same read-out and setting: the value for `O=C(CCCl)NNC1=NCCCCN1` was more than 100 µM; that for `Oc1ccccc1C1=NOC(c2ccc(C(F)(F)F)cc2)C1` (centres undefined) was more than 50 µM; that for `Cc1c(N/C=C(\C#N)C(=O)c2ccc(Cl)cc2)c(=O)n(-c2ccccc2)n1C` was more than 100 µM. Take `C[CH2][Ge]([CH2]C)([CH2]C)[O]C(=O)CCC(=O)[O][Ge]([CH2]C)([CH2]C)[CH2]C`: the GI50 is more than 100 µM and the TGI was more than 100 µM.

In turn, `COC(=O)[C@@H](Cc1ccccc1)N1O[C@]12CCCC[C@@H]2NC(=O)OC(C)(C)C` (some centres undefined) showed a TGI of more than 100 µM. In the case of `O=C1C(=O)c2ccccc2C(O)=C1CCCc1ccc(C2CCCCCC2)cc1`, the GI50 was 0.717 µM and the concentration for total growth inhibition (TGI) was 8.72 µM. Compound `Clc1ccc(-c2ccc(-c3nnc(COc4ccc(OCc5nnc(-c6ccc(-c7ccc(Cl)cc7Cl)o6)o5)c(Cl)c4)o3)o2)c(Cl)c1` displayed a TGI of more than 100 µM. As to `CCCNC(=O)c1ccc(Cl)cc1Cl`, the GI50 is more than 100 µM and the TGI is more than 100 µM. In the case of `CSc1nc(NC2OC(COC(C)=O)C(OC(C)=O)C(OC(C)=O)C2OC(C)=O)c(-c2csc(N)n2)c(=O)n1C` (centres undefined), the total growth inhibition concentration (TGI) is more than 100 µM. Still for that read-out and setting: for `CC(/C=C/c1ccccc1)=N\NC(N)=S` the value was more than 100 µM.

`Cc1[nH]nc2c1N=C(c1ccccc1F)c1cc(C(N)=O)ccc1N2`: the GI50 was 9.06 µM and the TGI was more than 25 µM. Regarding `CC(C)C(C/C=C1/CC(CO)(COC(=O)c2ccccc2)OC1=O)C(C)C` (centres undefined), the TGI turned out to be 28.3 µM. In other words, the double-digit micromolar range. In turn, `CCCCCCCCCCCCCCCC(=O)OCC1OC(OC)C2NP(=O)(N(CCCl)CCCl)OC1C2O` (centres undefined) returned a TGI of more than 100 µM. Still for that read-out and setting: the value for `CC(C)CC(Nc1c(O)ccc2ccccc12)C(=O)O` (centres undefined) was 83.2 µM. On the same count and under the same terms, for `Cc1cc(=O)[nH]c(NNC(C#N)c2c(O)ccc3ccccc23)n1` (centres undefined) the value was more than 100 µM. Regarding `COc1cc(-c2cc(/C=C/C(=O)c3ccc(Cl)c(Cl)c3)[nH]n2)cc(OC)c1OC`, the GI50 was 14.5 µM and the TGI was more than 100 µM. For the compound `COCCN1CCN(Cc2ccc(-c3n[nH]c4c3C(=O)c3c(NC(=O)NN5CCOCC5)cccc3-4)cc2)CC1`, the GI50 was 0.0294 µM and the TGI stood at 0.517 µM. `O=c1c2cc(Cl)ccc2[nH]c2cc(O)cc(O)c12` came in with a TGI of more than 10 µM.

As for `O=[N+]([O-])c1cc(Cl)ccc1OCc1ccccc1`, the concentration for total growth inhibition (TGI) is more than 100 µM. Compound `COc1ccc(/C=C2/NC(=S)N=C2Cl)cc1` returned a TGI of more than 100 µM. On the same count and under the same terms, the value for `CCCCCCCCCCCCOc1ccc(/C=C/C2=[N+](CCCl)CCO2)cc1` was 71.8 µM; that for `COc1cc(Nc2nnc3n2S(=O)(=O)c2cc(C)c(Cl)cc2S3)cc(OC)c1` was more than 100 µM. For the compound `CC(=O)C1=C(C)N(C)C2(O)C=CC(=O)C3=C(O)c4ccccc4C(=O)C312` (centres undefined), the GI50 was 2.97 µM and the concentration for total growth inhibition (TGI) was 9.1 µM.

Take `c1cncc(O[Si](Oc2cccnc2)(Oc2cccnc2)Oc2cccnc2)c1`: the total growth inhibition concentration (TGI) is more than 100 µM. `CCOC(=N)CC(=O)Nc1cccc(Cl)c1` returned a TGI of more than 100 µM. As for `COC(=O)/C=C1/SC(N2N=C(c3cccs3)CC2c2ccc(F)cc2)=NC1=O` (centres undefined), the GI50 is 2.24 µM and the TGI was 6.68 µM. `COc1cc(S(=O)(=O)Nc2ccc(-c3csc(N4C(=O)C(Cl)C4c4ccccc4)n3)cc2)ccc1Cl` (centres undefined) yielded a total growth inhibition concentration (TGI) of more than 100 µM. Same read-out and setting: the value for `[O-][N+]1=NC(c2ccccc2)=C1c1ccccc1` was more than 50 µM. Regarding `COc1ccc(-c2cc(-c3cc(Cl)cc(Br)c3O)[nH]c(=O)n2)cc1`, the total growth inhibition concentration (TGI) amounted to 59.7 µM. As for `NC(=O)C(=O)C(c1ccccc1)S(=O)(=O)Cc1ccccc1` (centres undefined), the concentration for total growth inhibition (TGI) is more than 100 µM.

For `CCN(CC)CCN(Cc1ccc(F)cc1)c1ccc(CO)c(Cl)c1`, the GI50 is 1.44 µM and the total growth inhibition concentration (TGI) is 6.36 µM. `CC12CO[C@@](C)(CC(S(=O)(=O)c3ccccc3)C1)O2` (some centres undefined) showed a TGI of more than 100 µM. The same measure, in the same setting: for `O/N=C(\CC(O)(C(F)(F)F)C(F)(F)F)c1cccc(Cl)c1` the value was more than 100 µM.

On to `CCCCNC(=O)c1cc(NCc2cc(O)ccc2O)ccc1O`, for which the GI50 is more than 100 µM and the concentration for total growth inhibition (TGI) was more than 100 µM. In turn, `CCC(C)C1NC(=O)C2CCCN2C(=O)CNC(=O)C(C)NC(=O)C(Cc2ccccc2)NC(=O)C(C(C)C)NC1=O` (centres undefined) (cyclo(GPIVFA); configuration not given here) showed a TGI of more than 100 µM.

For `COc1cc(N2CCN(C(C)C)CC2)ccc1Nc1nc(Nc2cccc(F)c2C(=O)O)c2cc[nH]c2n1`, the GI50 was more than 25 µM and the concentration for total growth inhibition (TGI) was more than 25 µM. Turning to `NC(=O)/C=c1/c2ccccc2n2nc3ccccc3c12`, the TGI was more than 100 µM. `SCc1ccc(CS)s1` returned a total growth inhibition concentration (TGI) of more than 100 µM. `COc1ccc(/C=C2\CN(Cc3cn(CCNc4ccnc5cc(Cl)ccc45)nn3)C/C(=C\c3ccc(OC)c(OC)c3)C2=O)cc1OC`: the GI50 was 8.25 µM and the TGI was 24.4 µM. The compound `CC(CNCCCNCCNCCCNCO)[N+](=O)[O-]` (centres undefined) displayed a TGI of more than 100 µM. On the same count and under the same terms, for `O=[N+]([O-])c1ccc(/C=C/c2csnn2)cc1` the value was more than 100 µM. Same read-out and setting: for `COC(=O)c1ccccc1/C=C1\Cc2c(C)cc(C)cc2C1=O` the value was more than 100 µM.

With `Cc1ccc(C2=C(c3ccc(C)cc3)C3(c4ccc(C)cc4)C4C(=O)c5ccccc5C(=O)C4C2(c2ccc(C)cc2)S3=O)cc1` (centres undefined), the GI50 is more than 100 µM and the TGI is more than 100 µM. Turning to `Cc1ccc(C(SCC(N)C(=O)O)(c2ccccc2)c2ccccc2)cc1` (centres undefined), the 50% growth inhibitory concentration (GI50) was 0.0839 µM and the TGI was more than 100 µM. On to `C=C1C2CC(OC(C)=O)C3(C)C(c4ccoc4)OC(=O)[C@@H](O)[C@]13OC1C[C@H](OC(C)=O)C(C)(C)[C@H](CC(=O)OC)[C@]12C` (some centres undefined), for which the TGI was more than 100 µM. `COC(=O)C(CBr)CBr` had a TGI of 29.9 µM. On the same count and under the same terms, the value for `CC(C)(C)OC(=O)c1ccc(NCC2=CC(=O)C=CC2=O)cc1` was 85.4 µM; that for `CO[C@@H]1C[C@H]2N3CC[C@@]2(c2cc4c(cc2C3)OCO4)[C@H]2O[C@@H]12` was more than 100 µM. In the case of `COc1cc2ncnc(Nc3ccc4c(cnn4Cc4ccccc4)c3)c2cc1OC`, the GI50 was 0.416 µM and the TGI was more than 25 µM.

`NC(Cc1ccc(S(=O)(=O)O)cc1)C(=O)NC(Cc1ccc(S(=O)(=O)O)cc1)C(=O)NC(Cc1ccc(S(=O)(=O)O)cc1)C(=O)O` (centres undefined) returned a total growth inhibition concentration (TGI) of more than 100 µM. The same measure, in the same setting: the value for `O=[N+]([O-])/C(C(Cl)=C(Cl)Cl)=C(\Nc1ccccc1)n1nnc2ccccc21` was more than 100 µM. For `CCCCc1n(Cc2ccc3ccccc3c2)cc[n+]1Cc1ccc2ccccc2c1`, the GI50 is 1.38 µM and the TGI stood at 2.75 µM.

The compound `O=C(CC1(O)C(=O)Nc2ccccc21)c1ccc(O)cc1` (centres undefined) gave a total growth inhibition concentration (TGI) of more than 100 µM. In the case of `CC(C)n1nc(-c2ccc3oc(N)nc3c2)c2c(N)ncnc21`, the 50% growth inhibitory concentration (GI50) is less than 0.0127 µM; the TGI was 0.369 µM and 0.858 µM.

Turning to `Nc1c(-c2ccccc2[N+](=O)[O-])nc2ccccn12`, the TGI was more than 100 µM. Still for that read-out and setting: for `CN(C)c1ccc(-c2ccc(N(C)C)c3n[se]nc23)c2n[se]nc12` the value was more than 100 µM. `COC(=O)N/N=C(/CCC(=O)Nc1ccc(C)c(C)c1)CC(=O)C(C)(C)C` came in with a TGI of more than 100 µM. The compound `CC(C)(C)c1cc(OCc2nnc3sc(=S)[nH]n23)c(Cl)cc1OCc1nnc2sc(=S)[nH]n12` registered a total growth inhibition concentration (TGI) of more than 100 µM. On to `N#Cc1c(N)nc(N)nc1N[C@H](c1nc2c(F)ccc(Cl)c2c(=O)n1-c1cccnc1)C1CC1`, for which the GI50 was 3.95 µM and the total growth inhibition concentration (TGI) was found to be 24.3 µM. As for `O=S(=O)(c1ccccc1)n1cc(C[P+](c2ccccc2)(c2ccccc2)c2ccccc2)c2ccccc21`, the TGI worked out at 27.3 µM. Still for that read-out and setting: the value for `CC1=C(Cl)C=CP(=O)(OC(C)C)C1` (centres undefined) was more than 100 µM; that for `O=C1NC(=O)/C(=C/c2ccc(S(=O)(=O)N/N=C\C(O)C(O)C(O)C(O)CO)cc2)N1` (centres undefined) was more than 100 µM; that for `COc1cccc2c1C(=O)c1c(O)c3c(c(O)c1C2=O)C[C@@](O)(C(=O)CO)CC3OC1CC(O)C(O)C(C)O1` (some centres undefined) was 7.31 µM.

For the origin of these results see PubChem BioAssay (NCI).
